The full ranking holds about 2,300 sequences; the median of “median log2 fold change of GCK-ALFA target abundance (FLAG IP / Myc IP barcode read proportion)” is about 0.095, and the lowest 2% start at about -0.47. The list shows a part of the results.
B1: LC3A_45_1988 (protein)
chain: MYEAVVSLLVPRELAEEALRVVKEAARELEAEYGPDLKVNWERLEETYEATRDEEEVFLEVEITHPDKDVALDAAVELEDRVRERLGDRVASIISYKEVP
B2: LC3A_3_1695 (protein)
chain: MEEVVKETLEVAKKNGWSEETLKALEELLKLLKERGYLEAIKKLLEKLKELKDASSEDMKWMFEELKYKVENENLNEEEITKEIEEEAEVIKKAKEIEEL
B3: LC3A_free_46_2419 (protein)
chain: MTLEIDIDVLAKTEETARAVAERLTATLRAIAERLGVEVEIEVRIEKLEDGTYYLEIRATFTGVTPEQAQQIEDEVVDKVEQLEEEYPEILGSIISSELE
B4: LC3A_132_308 (protein)
chain: GEELAKKLIEIAKEALRLVKEDDSKEEEVLELLREAKELMEKLAKEASPELAAKTFEEVEEILIEISRLAAKKGWDEVSDEAFALAAEAAQLKSDAKKKL
B5: LC3A_28_1322 (protein)
chain: SRVEEELARAEAAADAAAARGEDILLEVEISGDTTLEEAERLMERLEEIAARYAPERKVSIVINLDGDVKQEVIDLIAERAEEIEERYPNVTVILALDEE
B6: LC3A_132_284 (protein)
chain: DKELKEKRIKKVKEIAEKAKKAADDPEKTKKLLEEMKKYLEEVEKTESPEVQAAVFDEAAKEYDKLADLLDSKGKEDLALEADSLSIEAASRSIRAEKKI
B7: LC3A_28_1268 (protein)
chain: SAIDKAIAAFKAQAEAALAAGEPALLELEVSGKATEADVDKINATLKAEAARLADIPGTAILISIDSKLKEENRNKLIDTAEEIEAAQPNITVIIAIEDE
B8: LC3A_28_639 (protein)
chain: MTIEEEIKKALEEAKKAAENGESKVITLKIPGTSNQEDIDKVIETLEKIAEILKDLPSTSIIIDVDGNVPQENIDKLADKAEEIEKKYPNVTVIIALEEK
B9: LC3A_55_2007 (protein)
chain: MEVFIFITENAETGEILALEVEVDSDPERLLEALRAAGEELAAELFRLANGRRLDEEEMAEIKARYSPEEVRAAVEALIAVLESLPDVKVSVLIELEEEE
B10: LC3A_3_1530 (protein)
chain: MEERIKETLERLREAGASEETLEAFRKAAELLKEKGYEKALETLIEEADKLLDVPDELLLDFFEEVLELIETSDLSEEELVEEIKELARITLNESEIIEL
B11: LC3A_59_2030 (protein)
chain: AARIEAYVAALRANKDDPEAMARVILDALEEFRDDPAALAALRAALQATLVELGLLSPELAAELLAEAEAIVAALEDREEALAAVLSELRVALAEEEIEE
B12: LC3A_3_1453 (protein)
chain: MEELREELLKILKEQGMSEETIEAALELVDELEKKGYLEAIKTLIEELKKLKNVSSEIMLAMFEELLEIVKTKDLSEEEVIEEIKRLAAAAKAEQEIIEL
B13: LC3A_3_1886 (protein)
chain: MEEEIKETIELLKEKGASEETIEAFKKVIELLKKRGYEEALKELIEEVKELADLPDELLLDFLKDVLETLETEDLDEEELIKKIKEIARLTRNEAEIEEL
B14: LC3A_28_1227 (protein)
chain: AAVEAQIAAARAELAAAAAAGEEATITVTITGSTTVEDVKTLMAALRELVEEYADLPRISIIIDLSGSVSQEVIDTAADGGEEIEEEFPNVTVIIALDEE
B15: LC3A_3_1877 (protein)
chain: MEERVEETVKELKEAGKSEETIEKFLEAVELLKERGWEKAAETLIEEVRKLISAPNEIVLDFLEEVLETIEEEDLSEEELIERIKELARLALNESEIIEL
B16: LC3A_28_857 (protein)
chain: SETERSIEEARKRLEEAVANKEPVLITIRVTEDVTEEEVDRVIETIELAAEASKEVPELHVLVDFDGDIDPEHQKRIVDAGEEATKRNPNLTVIFALDEE
B17: LC3A_28_973 (protein)
chain: SELEKELEKALKEAKEAAEKKEPKVITIKVKGTTNEEDTEKIIEKLEEIAEILKDVKGSAIIIDVERGVKQEHIDKLADKAEEIEEKYPNITVIIALEEE
B18: LC3A_132_290 (protein)
chain: QQEKYEKLTKEANALVEEAKANIDDEAKVLALLEKIKALMEEAVKELSPELLAKFFEELADKLEALAKEFDAAGKEDLALLADSLAIEAASLALRAKEQI
B19: LC3A_3_1611 (protein)
chain: MEELIERELERLREAGFSPEVLEEARKVLEALAEKGYRRAIEKLTEELLKLKDVDPELVIEALREILRIVTEEDLSEEEVIEEIEREFRVVRLESEIIEL
B20: LC3A_free_46_2379 (protein)
chain: YKIEIDIYFSAMDKETAEKIAEEIKKAAEEISKKTGVKIEVKVEIITDEEGETWLEVEVTIEHEDEEKALEAATELIDEFEKIAKEAGVSLIISVEKIKE
B21: LC3A_3_1690 (protein)
chain: MDELVKEVLEELKKIGADPETLKAAEKLLKKLKEKGYENAIKTLLEELKKLKNADSEILKAMFEDILYEVENKNLSEEEIVELIKEEARIAKNEQEIIEL
B22: LC3A_141_357 (protein)
chain: ATQTRTLTLTATTYDEGEEVADQIGAAIRAFMEATGADTVTLTLTITAYNAETGETTTETETLTVTWENLDMVEEGILISILSQFEKGATKVTVTATITT
B23: LC3A_28_927 (protein)
chain: MTAEEVIEEIREKAREALESGKPAHLEVKIDSSTTVEEAERIMEEVEREVKRLAEAGIEVDITVDLDNVSQEVLDLVAERLDEIIEKYPLASAIIALDEE
B24: LC3A_3_1520 (protein)
chain: MEEIEKEIIKLLKEAGASEETIEKAKELLKLLRERGYLNAMKTLLEELKELKDAPVETIEAFVKDVLELVKTEDLSEEELSKRIKELATIAKNDAEIEEL
B25: LC3A_45_1955 (protein)
chain: MYEATVYVLVPAEHFDAAVAVLREKAAELEREKGVEVRIDPEALAAARAEAAANGEALLEVRIIAEDKETALDAADEIEDAVQAAMPPSVAVAISVEEVP
B26: LC3A_free_46_2306 (protein)
chain: WKAEIDIDLLHEDEEVLKKAVEEIIAAAKEIAEKYGLELEIEVEFEKLEDGSYYAHIKITLKGEKEEDLKKAVNELIDKIDEIAEKYDVSAVISVEIIKE
B27: LC3A_141_376 (protein)
chain: KEVEFELEAKGETPEEVVEKMDELEEKVLKAYEELGGGKVKVKVTLTLTNRETGEVKVVEEEFVGDKETIEMLLDGFLIEAASAVMRAPTDVKLKVVLEK
B28: LC3A_free_8_2486 (protein)
chain: KVEEAKKKISEIIDKAEEEIKKKAKELNADPLDVNELLILLGQAEIYALDYVDKNDEELLKELEDAFKEAIELAKKISEEIAKIVEEAKKKVLEILESLK
B29: LC3A_147_474 (protein)
chain: VRAEVSIDILTKNAEEEVKEKIKEIVEELKEEGYEVELEIKTEKLPDGTTYIEVTITIKAETKEKAEEAANKVIDKLDEIEEELKDKILGSIISVEIIEE

target: MAP1LC3A, Q9H492; assay: median log2 fold change of GCK-ALFA target abundance (FLAG IP / Myc IP barcode read proportion) (log2 ratio); each designed protein is fused to an ALFA-tag nanobody in HEK293 cells to bring the named protein to FLAG-tagged glucokinase (GCK); Myc marks an untargeted standard; higher = target protein stabilised (more abundant); settings: target protein: 3xFLAG-MCP-GCK-ALFA reporter; HEK293 landing pad (RPLP)
Summary of the method: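 The readout is target abundance, the per-binder median log2 ratio of FLAG to Myc barcode read proportions. It came from HEK293 landing-pad cells carrying a recombined ALFA-nanobody-fused binder library, induced with 2 μg mL^−1 doxycycline and transfected with a plasmid for a FLAG-tagged target and a Myc-tagged standard. After 48 h, lysates were immunoprecipitated with anti-FLAG and anti-Myc, and circular RNA barcodes were reverse transcribed, amplified and sequenced. Each barcode needed a proportion of at least 10^−7 in both replicates and each binder at least 3 barcodes per replicate, a pseudocount of 10^−6 was added, and the replicates were pooled.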

Row | Binder | median log2 fold change
1 | B1 | 0.0685
2 | B2 | 0.503
3 | B3 | 0.113
4 | B4 | 0.14
5 | B5 | 0.192
6 | B6 | 0.18
7 | B7 | -0.216
8 | B8 | 0.024
9 | B9 | 0.119
10 | B10 | -0.145
11 | B11 | 0.27
12 | B12 | 0.265
13 | B13 | 0.217
14 | B14 | 0.121
15 | B15 | -0.0211
16 | B16 | -0.0247
17 | B17 | 0.202
18 | B18 | 0.0704
19 | B19 | 0.132
20 | B20 | -0.121
21 | B21 | 0.0946
22 | B22 | -0.285
23 | B23 | 0.131
24 | B24 | 0.547
25 | B25 | 0.0692
26 | B26 | 0.198
27 | B27 | -0.00697
28 | B28 | 0.171
29 | B29 | 0.0901

Reference: the supplement of paper PMC12632987
